According to ChEMBL document CHEMBL4888484, “Replenishing the malaria drug discovery pipeline: Screening and hit evaluation of the MMV Hit Generation Library 1 (HGL1) against asexual blood stage Plasmodium falciparum ,using a nano luciferase reporter read-out” (2022):
The whole screen tested about 150,000 compounds, of which about 540 (0.36%) showed an effect of 50% or more. This is one part of the list.

Tested on: Plasmodium falciparum
Test: Primary screen in NF54 nanoGlo assay, in single point, at 2uM, 72h; a lower Z score goes with more inhibition
Format: functional, Erythrocyte
Conditions: timepoint 72 hour

| Compound | % Inhibition | Z score |
| --- | --- | --- |
| COc1ccc([C@@H]2CCON2Cc2ccccc2Cl)cc1 | -3% | 0.37 |
| O[C@H]1[C@H](NCC2CCCCC2)[C@H]2CO[C@H](O2)[C@@H]1n1cccn1 | -7% | 1.39 |
| FC(F)(F)c1cccc(C2(c3nnc(Cc4cccc5ccccc45)o3)CCOCC2)c1 | -17% | 2.49 |
| Cc1ccccc1CNC(=O)[C@H]1CCCN(c2nc3ccc(Cl)cc3[nH]2)C1 | 9% | -1.55 |
| CN(CC(=O)Nc1ccc(Cl)cc1C#N)S(C)(=O)=O | -5% | 0.84 |
| CCc1nc(C)cc(NCC2(COC)CCC2)n1 | -9% | 1.65 |
| Cc1ccc(C2=NN(c3cc(C)nc(-c4ccccc4)n3)C(=O)C2)cc1 | 10% | -1.8 |
| CCc1cc(CNC(=O)[C@@]2(C)CC2(Cl)Cl)[nH]n1 | 1% | -0.09 |
| COc1cc(-c2ccccc2)ccc1CN1CCC[C@H]1c1nncn1C | 3% | -0.35 |
| O=C(Cc1ccon1)N[C@H]1CCCOc2c1ccc1ccccc21 | -3% | 0.4 |
| CCc1nc(NC(=O)COC[C@H]2CCCN(C(=O)OC(C)(C)C)C2)sc1C | -7% | 1.39 |
| CN(C(=O)C[C@H]1CCCS(=O)(=O)C1)C1CCC(F)(F)CC1 | -4% | 0.67 |
| N#CC1(NC(=O)Cn2cnc3ccc(Cl)cc3c2=O)CCCC1 | -13% | 1.81 |
| Cc1nc(CNC(=O)Nc2ccc(Br)c(C)n2)no1 | 35% | -1.45 |
| CN1CCN(S(=O)(=O)c2ccc(F)c(F)c2)C[C@H]1c1ccccc1 | 36% | -4.11 |
| NC(=O)c1cc([C@H]2CCCN(CC(=O)NCc3cccs3)C2)n[nH]1 | 1% | -0.11 |
| O=C1CCC2(CCN1)CCN(CCCc1ccco1)CC2 | 5% | -0.85 |
| COCCN1C[C@@H](CNC(=O)c2ccc(C)nc2C)CC1=O | -13% | 2.44 |
| CCO[C@@H](C)c1nc(Cn2cnc3cc(C)c(C)cc32)cs1 | -9% | 1.03 |
| Cc1cc(N(C)C(=O)CN(C)S(C)(=O)=O)ccc1Br | -4% | 0.45 |
| Cc1cc(OCC(=O)Nc2ccc(S(=O)(=O)N3C[C@H](C)Oc4ccccc43)cc2)cc(C)c1Cl | -11% | 1.42 |

| Compound | % Inhibition | Z score |
| --- | --- | --- |
| CNc1ncccc1C(=O)NC(Cc1ccccn1)[C@H]1C[C@H](O)C1 (some centres undefined) | -2% | 0.4 |
| N#Cc1nccnc1O[C@H]1CC[C@H](NC(=O)c2ccc3ncsc3c2)CC1 | -12% | 1.34 |
| Cc1cccc2c1nc(COCC(=O)O)n2-c1ccncc1 | -2% | 0.33 |
| CC(C)CNC(=O)N1CCC[C@H]1c1cccs1 | -1% | 0.15 |
| O=C(c1ccc(OC(F)(F)F)cc1)N1CCCn2nc(-c3ccncc3)cc2C1 | -32% | 2.78 |
| Cc1nc(N2CCCC2)nc(-c2cccc(C(=O)N[C@H]3CCOC3)c2)c1C | 7% | -1.24 |
| NC(=O)c1c(NC(=O)c2ccncc2)sc2c1CCC2 | -8% | 1.42 |
| CCOc1cccc([C@@H]2CC(c3ccccc3)=NC3(CCN(C(C)C)CC3)N2)c1O | -18% | 2.03 |
| C#CCCC1(CCC(=O)NCc2cc(OC)no2)N=N1 | 10% | -1.19 |
| N#CCCc1c(Cl)cccc1Cl | -3% | 0.59 |
| Cc1oc(-c2ccsc2)nc1CN1CC[C@H](c2ccncc2)C1 | -20% | 1.83 |
| CCc1cc(C(=O)Nc2ccc(-n3cncn3)nc2)sc1C | -23% | 2.52 |
| Cc1nnc(C(=O)NCc2nc(C)c(C)s2)s1 | -7% | 1.2 |
| COCCC(=O)N[C@H]1CC[C@]2(C)CCC([C@H](C)C(=O)NCc3ccc(F)cc3)[C@H](O)[C@H]2[C@@H]1C (some centres undefined) | 5% | -0.58 |
| CN1CCN([C@H]2CN(c3ncccc3F)C[C@@H]2O)CC1 | -12% | 1.67 |
| CCN1CCN(C[C@]2(O)CCCN(CCC3CCCCC3)C2=O)CC1 | -15% | 3.07 |
| C=CCc1ccccc1OCCCON1C(=O)CCC1=O | 28% | -3.79 |
| CCOc1ccccc1C(=O)N1C[C@H]2CN(C(=O)c3ccccc3)C[C@@]2(CO)C1 | -13% | 1.72 |
| CCCCN1C(=O)[C@H]2[C@H]([C@H](O)c3ccc(Cl)cc3)N[C@@]3(C(=O)Nc4ccccc43)[C@H]2C1=O | 43% | -6.76 |
| CN(C)c1nnc(CNS(=O)(=O)C[C@@]2(C)CC2(F)F)[nH]1 | -11% | 2.09 |
| COc1cc(-c2ccc(C(=O)NCCNS(C)(=O)=O)cc2)nc(N)n1 | 6% | -1.05 |
